The values that follow come from paper PMC10776578, “Epstein-Barr virus-driven B cell lymphoma mediated by a direct LMP1-TRAF6 complex” (Nature Communications, 2024).

No constants are given. Whether binding was seen depends on the method and setting. For part of these data: Binding seen in cells or lysates may run through a third protein. Some entries that bind do so weakly or less than the wild type. Tags and fused reporters may be left off the sequences shown.

The target of test [1] is T1, Flag-TRAF6 K469A (human) (UniProt Q9Y4K3).
T1 sequence: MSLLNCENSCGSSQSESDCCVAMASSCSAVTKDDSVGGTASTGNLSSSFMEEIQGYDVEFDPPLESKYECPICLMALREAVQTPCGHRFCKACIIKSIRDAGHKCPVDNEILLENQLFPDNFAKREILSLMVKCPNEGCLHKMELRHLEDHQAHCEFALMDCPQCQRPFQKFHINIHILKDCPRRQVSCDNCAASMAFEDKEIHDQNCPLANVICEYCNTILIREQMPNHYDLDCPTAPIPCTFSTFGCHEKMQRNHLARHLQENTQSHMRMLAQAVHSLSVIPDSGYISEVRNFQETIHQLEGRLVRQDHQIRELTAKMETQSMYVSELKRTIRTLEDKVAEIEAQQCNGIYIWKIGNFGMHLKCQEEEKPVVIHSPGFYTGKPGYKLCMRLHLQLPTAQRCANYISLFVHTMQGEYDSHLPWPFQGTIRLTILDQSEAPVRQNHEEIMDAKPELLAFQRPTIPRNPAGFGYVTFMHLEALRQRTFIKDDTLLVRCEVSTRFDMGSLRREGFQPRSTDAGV
Description: co-IP; HEK293 co-transfected with Flag-TRAF6 and HA-LMP1; NP40-lysis buffer; IP with α-Flag antibody 6F7, coprecipitated HA-LMP1 detected by α-HA immunoblot.

For test [2], the target named is T2, Flag-TRAF6 Y473A (human) (UniProt Q9Y4K3).
T2 sequence: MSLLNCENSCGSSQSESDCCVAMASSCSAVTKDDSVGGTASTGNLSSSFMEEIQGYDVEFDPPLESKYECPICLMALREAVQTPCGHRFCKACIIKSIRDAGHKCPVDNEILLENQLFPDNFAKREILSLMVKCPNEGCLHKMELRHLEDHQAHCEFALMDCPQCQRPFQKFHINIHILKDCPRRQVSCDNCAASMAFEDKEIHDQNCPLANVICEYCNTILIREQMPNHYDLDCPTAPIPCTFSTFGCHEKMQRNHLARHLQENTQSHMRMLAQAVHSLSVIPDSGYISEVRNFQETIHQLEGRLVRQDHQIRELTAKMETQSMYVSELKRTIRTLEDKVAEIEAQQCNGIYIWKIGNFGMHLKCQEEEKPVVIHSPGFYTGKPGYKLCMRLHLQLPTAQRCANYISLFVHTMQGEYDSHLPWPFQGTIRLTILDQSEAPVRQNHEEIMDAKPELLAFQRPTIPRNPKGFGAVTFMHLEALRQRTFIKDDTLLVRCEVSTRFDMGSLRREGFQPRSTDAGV
Described as above.

The target of test [3] is T3, Flag-TRAF6 R392A (human) (UniProt Q9Y4K3).
T3 sequence: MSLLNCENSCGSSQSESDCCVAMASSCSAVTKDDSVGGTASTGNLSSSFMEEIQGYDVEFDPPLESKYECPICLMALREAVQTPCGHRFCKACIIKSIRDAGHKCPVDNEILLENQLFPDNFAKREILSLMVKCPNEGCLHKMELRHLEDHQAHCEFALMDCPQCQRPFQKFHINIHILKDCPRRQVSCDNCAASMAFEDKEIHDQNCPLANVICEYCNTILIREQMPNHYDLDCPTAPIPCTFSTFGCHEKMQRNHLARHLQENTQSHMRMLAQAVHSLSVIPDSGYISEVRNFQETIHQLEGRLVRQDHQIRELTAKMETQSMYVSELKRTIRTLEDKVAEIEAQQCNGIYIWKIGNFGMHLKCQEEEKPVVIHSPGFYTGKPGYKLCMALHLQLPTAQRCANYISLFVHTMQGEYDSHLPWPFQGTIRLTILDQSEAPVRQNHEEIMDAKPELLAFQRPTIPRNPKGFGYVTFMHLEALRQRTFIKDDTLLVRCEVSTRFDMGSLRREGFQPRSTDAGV
The description is as above.

The target in test [4] is T4, Flag-TRAF6 F471A (human) (UniProt Q9Y4K3).
T4 sequence: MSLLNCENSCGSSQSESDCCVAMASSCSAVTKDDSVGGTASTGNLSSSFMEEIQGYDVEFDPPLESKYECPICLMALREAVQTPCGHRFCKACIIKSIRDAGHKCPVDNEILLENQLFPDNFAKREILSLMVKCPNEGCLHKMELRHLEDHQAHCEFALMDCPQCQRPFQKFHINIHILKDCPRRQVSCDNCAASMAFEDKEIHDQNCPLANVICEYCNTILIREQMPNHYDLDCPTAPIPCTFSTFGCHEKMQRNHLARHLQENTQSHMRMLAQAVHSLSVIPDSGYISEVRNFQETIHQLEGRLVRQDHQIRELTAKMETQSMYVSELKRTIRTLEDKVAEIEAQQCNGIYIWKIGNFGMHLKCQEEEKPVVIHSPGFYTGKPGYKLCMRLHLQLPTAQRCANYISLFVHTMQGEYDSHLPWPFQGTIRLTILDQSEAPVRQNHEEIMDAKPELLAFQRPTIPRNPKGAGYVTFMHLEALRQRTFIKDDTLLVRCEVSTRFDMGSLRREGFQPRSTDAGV
Described as above.

In test [5] the target is LMP1-derived CTAR2 peptide 11 (amino acids 357-386, 30mer) (Epstein-Barr virus) (UniProt P03230). Description: peptide or protein array; peptides spot-synthesised on cellulose membranes in duplicate, incubated with 10 µg per mL purified His-TRAF6 or His-TRAF2 in PBST with 5% milk powder for 4 h at RT; detection by TRAF-specific antibodies; both purified.
Test [6] deals with LMP1-derived CTAR2 peptide 12 (357-386, P379xQxS to AxAxA) (Epstein-Barr virus) (UniProt P03230). The description is as above.
Test [7] concerns the target LMP1-derived CTAR2 peptide 9 (371-386, Y384 and Y385 to AA) (Epstein-Barr virus) (UniProt P03230). Described as above.
The target of test [8] is LMP1-derived CTAR2 peptide 8 (amino acids 371-386, 16mer) (Epstein-Barr virus) (UniProt P03230). Described as above.
The target of test [9] is LMP1-derived CTAR2 peptide 10 (371-386, P379xQxS to AxAxA) (Epstein-Barr virus) (UniProt P03230). The description is as above.
The target of test [10] is GST-LMP1_(181-386) (Epstein-Barr virus) (UniProt P03230). Description: AlphaScreen or HTRF; AlphaScreen PPI assay in competition: GST-LMP1 or GST-CD40 with His-TRAF6 (dose-response of TRAF6 inhibitor or control peptide, 4-parameter fit) or GST-LMP1 with His-TRAF2 (30 µM peptide); both purified.
Test [11] addresses GST-LMP1_(181-386) A204xAxA (Epstein-Barr virus) (UniProt P03230). Description: pull-down; both purified.
Test [12] deals with GST-LMP1_(181-386) (Epstein-Barr virus) (UniProt P03230). Description: pull-down; both purified.

For the molecule HA-LMP1 wild-type (from UniProt P03230), the binding entry in [1] is “binds”; in test [2] it was “no binding”; in test [3], “no binding”; in [4], “no binding”.

B1: His-TRAF2_(311-501) (domain or fragment, UniProt Q12933 311-501)
chain: QDKIEALSSKVQQLERSIGLKDLAMADLEQKVLEMEASTYDGVFIWKISDFARKRQEAVAGRIPAIFSPAFYTSRYGYKMCLRIYLNGDGTGRGTHLSLFFVVMKGPNDALLRWPFNQKVTLMLLDQNNREHVIDAFRPDVTSSSFQRPVNDMNIASGCPLFCPVSKMEAKNSYVRDDAIFIKAIVDLTGL
Consider B1, for which the binding result in test [5] is recorded as “no binding (tested: 10 µg per mL)”; in test [6], “no binding (tested: 10 µg per mL)”; in [7], “no binding (tested: 10 µg per mL)”; in test [8], “no binding (tested: 10 µg per mL)”; in test [9] it was “no binding (tested: 10 µg per mL)”; in [10], “binds”. Moreover, the binding result in [11] was “no binding”; in test [12], “binds”.
